The other results are listed elsewhere or left out.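 How the source made its calls: active = GRHL reporter fold change of at least 2 over DMSO at 10 µM; inactive = below 2-fold.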 Single values are uncertain, as repeats are few or missing.
Each molecule was assayed on HEK293 GRHL-luciferase reporter (assay: GRHL luciferase reporter activity, fold change over DMSO control; higher = stronger GRHL reporter activation). Conditions: 10 µM; 24 h.
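Further: stable HEK293 line carrying repeated GRHL consensus sites upstream of a minimal promoter driving luciferase, luminescence read 24 h post-treatment, normalized to 0.5% DMSO vehicle wells.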

GRHL luciferase reporter activity, inactive:
C[C@H](CS)C(=O)N1CCC[C@H]1C(=O)O 0.936
CC(C)CCCC(C)C1CCC2C3CCC4CCCCC4(C)C3CCC12C (stereo not given) 0.904
COC(=O)C[C@H]1C(C)(C)[C@@H](OC(C)=O)[C@@H]2CC3=C4CC(=O)O[C@@H](c5ccoc5)[C@]4(C)CC[C@@H]3[C@@]1(C)C2=O 0.859
CC1=C2C(O)C(=O)OC3CC4C(C)(C)C(=O)C=C[C@]4(C)C(CC1)[C@]23C (stereo not given in full) 0.844
CC[C@H]1OC(=O)C[C@@H](O)[C@H](C)[C@@H](O[C@@H]2O[C@H](C)[C@@H](O)[C@H](N(C)C)[C@H]2O)[C@@H](CCN2C[C@H](C)C[C@H](C)C2)C[C@@H](C)C(=O)/C=C/C(C)=C/[C@@H]1CO[C@@H]1O[C@H](C)[C@@H](O)[C@@H](OC)[C@H]1OC 0.966
CCCCC(CC)CCC(CC(C)C)OS(=O)(=O)O (stereo not given) 1.12
CC/C(=C(\c1ccccc1)c1ccc(OCCN(C)C)cc1)c1ccccc1 0.488
CCN(CC)C(=S)SSC(=S)N(CC)CC 1.15
CCCc1nc(C)c2c(O)nc(-c3cc(S(=O)(=O)N4CCN(CC)CC4)ccc3OCC)nn12 1.08
CO[C@H]1C[C@H](O[C@H]2[C@H](C)O[C@@H](O[C@@H]3/C(C)=C/C[C@@H]4C[C@@H](C[C@]5(C=C[C@H](C)[C@@H](C6CCCCC6)O5)O4)OC(=O)[C@@H]4C=C(C)[C@@H](O)[C@H]5OC/C(=C\C=C\[C@@H]3C)[C@]54O)C[C@@H]2OC)O[C@@H](C)[C@@H]1O 0.494

From the supplement of paper PMC8748497
